# Assay results from patent publication US11498899B2, “Nitrone herbicides” (FMC Corporation, priority 2016, dated 2022).
# Tested on: sedge, umbrella (small-flower umbrella sedge, Cyperus difformis)
# Test: Test B flooded paddy test, visual rating 0-100
# Conditions: Flood, 250 g ai/ha, applied to paddy water, rated after 13 to 15 days
row,Compound,"Sedge, Umbrella plant response rating (0 to 100 scale)"
1,CC1=[N+]([O-])C(C(=O)Nc2cccc(F)c2F)C(c2ccc(C(F)(F)F)c(Br)c2)C1 (racemic) [Compound 73],0
2,CC1=[N+]([O-])[C@@H](C(=O)Nc2cccc(F)c2F)[C@H](c2ccc(F)c(F)c2)C1 [Compound 39],0
3,CC1=[N+]([O-])C(C(=O)Nc2ccc(F)cc2F)C(c2ccc(C(F)(F)F)cc2)C1 (racemic) [Compound 46],0
4,CC1=[N+]([O-])C(C(=O)Nc2cccc(F)c2F)C(c2cc(F)ccc2C)C1 (racemic) [Compound 81],0
5,CC1=[N+]([O-])C(C(=O)Nc2cccc(F)c2F)C(c2cc(C)cc(CF)c2)C1 (racemic) [Compound 108],0
6,CC1=[N+]([O-])C(C(=O)Nc2ccncc2C(F)(F)F)C(c2ccc(C(F)(F)F)cc2)C1 (racemic) [Compound 36],0
7,CC1=[N+]([O-])C(C(=O)Nc2cccc(F)c2F)C(c2cccc(C)c2C)C1 (racemic) [Compound 77],0
8,CC1=[N+]([O-])C(C(=O)Nc2ccccc2C#N)C(c2ccc(C(F)(F)F)cc2)C1 (racemic) [Compound 32],0
9,CC1=[N+]([O-])C(C(=O)Nc2cccc(F)c2F)C(c2cc(C)ccc2C)C1 (racemic) [Compound 79],0
10,CC1=[N+]([O-])C(C(=O)Nc2cccc(F)c2F)C(c2cc(C)nc(OC(F)F)c2)C1 (racemic) [Compound 83],15
11,CC1=[N+]([O-])C(C(=O)Nc2cccc(F)c2F)C(c2ccc(F)c(Cl)c2)C1 (racemic) [Compound 63],0
12,CC1=[N+]([O-])C(C(=O)Nc2cccc(F)c2F)C(c2ccc(=O)n(Cc3ccc(Cl)cc3)c2)C1 (racemic) [Compound 119],0
13,CC1=[N+]([O-])C(C(=O)Nc2cccc(F)c2F)C(c2ccc(C)c(Cl)c2)C1 (racemic) [Compound 72],0
14,O=C(Nc1cccc(F)c1F)C1C(c2ccccc2)CC(C(F)(F)F)=[N+]1[O-] (racemic) [Compound 35],0
15,CC1=[N+]([O-])C(C(=O)Nc2cccc(F)c2F)C(c2ccc(C)c(Br)c2)C1 (racemic) [Compound 71],0
16,CC1=[N+]([O-])C(C(=O)Nc2cccc(F)c2F)C(c2cc(C)cc(C)c2)C1 (racemic) [Compound 112],0
17,CCOc1cc(OC)cc(C2CC(C)=[N+]([O-])C2C(=O)Nc2cccc(F)c2F)c1 (racemic) [Compound 116],0
18,CC1=[N+]([O-])C(C(=O)Nc2cccc(F)c2F)C(c2ccccc2F)C1 (racemic) [Compound 21],0
19,CC1=[N+]([O-])C(C(=O)Nc2cccc(F)c2F)C(c2cc(F)c(F)c(F)c2)C1 (stereo not drawn) [Compound 95],0
20,COc1cc(C2CC(C)=[N+]([O-])C2C(=O)Nc2cccc(F)c2F)cc(C)n1 (racemic) [Compound 57],0
21,CC1=[N+]([O-])C(C(=O)Nc2cccc(F)c2F)C(c2ccc(C)c(C)c2)C1 (racemic) [Compound 24],0

row,Compound,"Sedge, Umbrella plant response rating (0 to 100 scale)"
1,CC1=[N+]([O-])C(C(=O)Nc2cccc(F)c2F)C(c2ccccc2)C1 (stereo not drawn) [Compound 97],0
2,CC1=[N+]([O-])C(C(=O)Nc2cccc(F)c2F)C(c2ccc(F)c(C(F)(F)F)c2)C1 (racemic) [Compound 64],0
3,CC1=[N+]([O-])[C@@H](C(=O)Nc2cccc(F)c2F)[C@H](c2cccc(C(F)(F)F)c2)C1 [Compound 45],0
4,CC1=[N+]([O-])C(C(=O)Nc2cccc(F)c2F)C(c2ccc(C(F)(F)F)cc2F)C1 (stereo not drawn) [Compound 101],0
5,"CC1=[N+]([O-])[C@H](C(=O)Nc2cccc(F)c2F)[C@@H](c2ccc(C(F)F)cc2)C1 (relative stereo) [Compound 93, rel-(2S,3R)-3-(4-Difluoromethyl)phenyl)-N-(2,3-difluorophenyl) 3,4-dihydro-5-methyl-2H-pyrrole-2-carboxamide 1-oxide]",0
6,CC1=[N+]([O-])C(C(=O)Nc2cccc(F)c2F)C(c2cc(F)cc(Oc3ccc(Cl)nc3)c2)C1 (racemic) [Compound 50],0
7,CC1=[N+]([O-])C(C(=O)Nc2cccc(F)c2F)C(c2cccc(Cl)n2)C1 (stereo not drawn) [Compound 89],0
8,CC1=[N+]([O-])C(C(=O)Nc2ccccc2)C(c2ccc(F)c(F)c2)C1 (racemic) [Compound 17],0
9,CC1=[N+]([O-])C(C(=O)Nc2cccc(F)c2F)C(c2cccc(F)c2C)C1 (racemic) [Compound 78],15
10,CCc1cc(CC)cc(C2CC(C)=[N+]([O-])C2C(=O)Nc2cccc(F)c2F)c1 (racemic) [Compound 109],0
11,CC1=[N+]([O-])C(C(=O)Nc2cccc(F)c2F)C(c2ccc(F)c(F)c2)C1 (racemic) [Compound 10],0
12,CC1=[N+]([O-])C(C(=O)Nc2cccc(F)c2F)C(c2cccc3c2CCC3)C1 (racemic) [Compound 118],0
13,CC1=[N+]([O-])C(C(=O)Nc2cccc(F)c2F)C(c2cccc(Cl)c2F)C1 (stereo not drawn) [Compound 99],0
14,CC1=[N+]([O-])C(C(=O)Nc2cccc(F)c2F)C(c2cccc(Oc3ccc(Cl)cn3)c2)C1 (racemic) [Compound 56],0
15,CC1=[N+]([O-])C(C)(C(=O)Nc2cccc(F)c2F)C(c2ccc(C(F)(F)F)cc2)C1 (racemic) [Compound 1],0
16,CC1=[N+]([O-])C(C(=O)Nc2ccccc2S(C)(=O)=O)C(c2ccc(C(F)(F)F)cc2)C1 (racemic) [Compound 43],0
17,CC(C)C1=[N+]([O-])C(C(=O)Nc2cccc(F)c2F)C(c2ccc(C(F)(F)F)cc2)C1 (racemic) [Compound 122],0
18,CC1=[N+]([O-])C(C(=O)Nc2cccnc2F)C(c2ccc(C(F)(F)F)cc2)C1 (racemic) [Compound 41],0
19,CC1=[N+]([O-])C(C(=O)Nc2cccc(F)c2F)C(c2cc(F)c(F)c(Oc3ncc(F)cn3)c2)C1 (racemic) [Compound 85],0
20,"CC1=[N+]([O-])[C@H](C(=O)Nc2cccc(F)c2F)[C@@H](c2ccc3c(c2)OC(F)(F)O3)C1 (relative stereo) [Compound 25, rel-(2S,3R)-3-(2,2-Difluoro-1,3-benzodioxol-5-yl)-N-(2,3-difluorophenyl)-3,4-dihydro-5-methyl-2H-pyrrole-2-carboxamide 1-oxide]",0
21,CC1=[N+]([O-])[C@@H](C(=O)Nc2cccc(F)c2F)[C@H](c2cccc(OC(C)(C)C)c2)C1 [Compound 69],0
